Assay results taken from PubChem BioAssay AID651687 (Broad Institute, 2012).
The campaign covered roughly 350,000 compounds. About 600 (0.17%) were called active. Inconclusive means that the source gave no clear call. Such entries were picked first, then a sample of the others.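 Rule for the calls: active = every replicate shows inhibition of at least 40%; inconclusive = mean inhibition at least 40% but some replicate below; inactive = the rest.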 Where a structure was tested more than once in an assay, its records may differ in their call.

Assay: inhibitors of PGC1a acetylation signal, primary screen, cell-based, U2OS, AlphaScreen, inhibitor mode (AID 651687);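 note: 0% = neutral control wells and 100% = positive control wells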
Details: AlphaScreen anti-acetyl-lysine, at 15.6 µM, stronger effect = higher value, with virally co-expressed GCN5 acetyltransferase

**Q.** With `O=C(Nc1ccc2c(c1)OCO2)C1CCN(c2ccc(S(=O)(=O)N3CCOCC3)cc2)CC1` as the compound, how does the inhibition read?
**A.** Its inhibition is inconclusive: 47.9%.

**Q.** With `O=C(C[C@H]1CC[C@H](NC(=O)C2CCC2)[C@@H](CO)O1)NCC1CC1` as the compound, how does the inhibition read?
**A.** The inhibition was inconclusive: 57.1%.

**Q.** Which inhibition does the source give for `Cc1ccccc1S(=O)(=O)N[C@@H]1CC[C@@H](CCn2cc(Cc3ccccc3)nn2)O[C@H]1CO` here?
**A.** The inhibition was active: 60.9%.

**Q.** For `CCOC(=O)C(C)n1cnc2c(nnn2-c2ccc(C)cc2)c1=O` (stereo unspecified), which inhibition is on record?
**A.** The inhibition was active: 66.7%.

**Q.** Which inhibition does the source give for `Cc1ccc(-c2nn(C)c(=O)c3ccccc23)cc1S(=O)(=O)NCCN(C)C` here?
**A.** Its inhibition is inconclusive: 42.4%.

**Q.** With `CC(C)(C)NS(=O)(=O)c1ccc(CCC(=O)N2CCOCC2)cc1` as the compound, how does the inhibition read?
**A.** Its inhibition is inconclusive: 45.8%.

**Q.** Which inhibition does the source give for `C=CCc1ccc(OCCCCNC(C)CC)c(OC)c1` (stereo unspecified) here?
**A.** The inhibition was inconclusive: 26.3%.

**Q.** Which inhibition does the source give for `CCOC(=O)C1=C(C)N=C2SC(C(=O)OC)=CC(=O)N2C1c1cccc(OC)c1` (stereo unspecified) here?
**A.** Its inhibition is inconclusive: 51.5%.

**Q.** For `Cc1cc(N2CCN(C)CC2)nc(=S)[nH]1`, which inhibition is on record?
**A.** Its inhibition is inconclusive: 53.1%.

**Q.** For `Nc1ccc2nc(NC(=O)C3CCCCC3)sc2c1`, which inhibition is on record?
**A.** The inhibition was inactive: 5.5%.

**Q.** For `C[C@@H](C(=O)Nc1nc2ccc(F)cc2s1)N1C(=O)C2CC=CCC2C1=O` (stereo partly specified), which inhibition is on record?
**A.** The inhibition was inconclusive: 47.2%.

**Q.** With `Clc1ccccc1C1CC(c2ccccc2)=Nc2ccccc2N1` (stereo unspecified) as the compound, how does the inhibition read?
**A.** Its inhibition is inactive: 0.175%.

**Q.** Which inhibition does the source give for `COCC(=O)N1C[C@@H](C)[C@@H](OC)CN(C)C(=O)c2ccc(NC(=O)c3cnccn3)cc2OC[C@@H]1C` here?
**A.** Its inhibition is inconclusive: 60.6%.

**Q.** Which inhibition does the source give for `Cc1cccc(C)c1NC(=O)C(NC(=O)c1ccccn1)c1ccc([N+](=O)[O-])cc1` (stereo unspecified) here?
**A.** Its inhibition is inconclusive: 42.5%.

**Q.** Which inhibition does the source give for `COc1ccc(CN(C)C[C@H]2OCCCC[C@H](C)Oc3ccc(NC(=O)Nc4ccc(C(F)(F)F)cc4)cc3C(=O)N([C@@H](C)CO)C[C@@H]2C)cc1` here?
**A.** Its inhibition is inactive: 9.44%.

**Q.** For `CCCN(CCC)S(=O)(=O)c1ccc(C(=O)Nc2nnc(CSC)o2)cc1`, which inhibition is on record?
**A.** The inhibition was inconclusive: 44.7%.

**Q.** For `COCCCn1[nH]c2c3c(ccc2c1=O)C(=O)c1ccccc1C3=O`, which inhibition is on record?
**A.** Its inhibition is inconclusive: 45.5%.

**Q.** With `COc1ccccc1NC(=O)/C=C1\SCC(=O)N1C` as the compound, how does the inhibition read?
**A.** Its inhibition is active: 93.4%.

**Q.** With `CCOC(=O)c1c(NC(=O)/C=C/C(=O)O)sc(C)c1-c1ccc(C(C)(C)C)cc1` as the compound, how does the inhibition read?
**A.** The inhibition was active: 46.9%.

**Q.** Which inhibition does the source give for `CCCC[C@@]1(C2CCCC2)Cc2cc(OCC(=O)O)c(Cl)c(Cl)c2C1=O` here?
**A.** Its inhibition is active: 95%.

**Q.** Which inhibition does the source give for `COc1ccc(-c2cc(C(=O)O)[nH]n2)cc1OC` here?
**A.** Its inhibition is inconclusive: 42.4%.

**Q.** With `CCN1CCN(c2nc(-c3ccccn3)nc3ccccc23)CC1` as the compound, how does the inhibition read?
**A.** The inhibition was inactive: 8.52%.

**Q.** With `C[C@@H]1CN([C@@H](C)CO)C(=O)Cc2cc(N(C)C)ccc2O[C@@H]1CN(C)C(=O)Nc1ccccc1` as the compound, how does the inhibition read?
**A.** Its inhibition is inactive: -13.2%.

**Q.** For `Cc1sc2nc(SCC(=O)N3CCOCC3)[nH]c(=O)c2c1C`, which inhibition is on record?
**A.** Its inhibition is inactive: 7.3%.

**Q.** With `O=C(C[C@@H]1C=C[C@@H](NC(=O)Nc2ccc(F)cc2)[C@@H](CO)O1)NCCN1CCCC1` as the compound, how does the inhibition read?
**A.** Its inhibition is inconclusive: 47.9%.

**Q.** For `O=C(N/N=C/c1ccccc1C(=O)O)c1cccc(S(=O)(=O)Nc2cc(Cl)ccc2Cl)c1`, which inhibition is on record?
**A.** The inhibition was inconclusive: 46.8%.

**Q.** Which inhibition does the source give for `C=CCNC(=O)CC1Nc2c3ccccc3nc(=S)n2C1=O` (stereo unspecified) here?
**A.** The inhibition was inconclusive: 41%.

**Q.** For `COc1cc(CN2C[C@@H]3N[C@H](C2)C3c2ccc(-c3ccccc3C)cc2)cc(OC)c1` (stereo partly specified), which inhibition is on record?
**A.** Its inhibition is active: 105%.

**Q.** Which inhibition does the source give for `COc1ccc(C2c3[nH]c4ccccc4c3C[C@H]3C(=O)N(c4ccccc4C(=O)N4CCC[C@@H]4C(=O)O)C(=O)N23)cc1` (stereo partly specified) here?
**A.** Its inhibition is inconclusive: 44.1%.

**Q.** With `Nc1nc(CSc2ccc(Cl)cc2)nc(N2CCCCC2)n1` as the compound, how does the inhibition read?
**A.** The inhibition was inactive: -11.4%.

**Q.** Which inhibition does the source give for `CCCNC(=O)C[C@H]1CC[C@@H]2[C@H](COc3ccc(NC(=O)NCCC)cc3C(=O)N2C)O1` here?
**A.** The inhibition was inactive: 4.56%.

**Q.** Which inhibition does the source give for `CCOc1cc(/C=N/N=C(N)N)ccc1OCc1ccc(Cl)cc1` here?
**A.** Its inhibition is active: 55.7%.

**Q.** For `O=C(Nc1nnc(S(=O)(=O)Cc2ccc(F)cc2)s1)c1ccccc1F`, which inhibition is on record?
**A.** The inhibition was inactive: 2.31%.

**Q.** For `CC(C)(C)c1ccc(CCC2OCC(C[N+]3(C)CCOCC3)O2)cc1` (stereo unspecified), which inhibition is on record?
**A.** The inhibition was active: 73.3%.

**Q.** Which inhibition does the source give for `CCOC(=O)c1oc2ccc(S(=O)(=O)N3CCC(C)CC3)cc2c1C` here?
**A.** The inhibition was inconclusive: 43.2%.

**Q.** For `C[C@@H]1CN([C@@H](C)CO)C(=O)c2cc(C#CCN(C)C)cnc2O[C@@H]1CN(C)S(=O)(=O)c1cn(C)cn1`, which inhibition is on record?
**A.** Its inhibition is inconclusive: 67.7%.

**Q.** Which inhibition does the source give for `CN(C)CCOc1ccc2c(c1)C(=O)C(=Cc1ncc([N+](=O)[O-])n1C)C2` here?
**A.** The inhibition was active: 92.6%.

**Q.** For `COc1ccc2nc(NCc3cccnc3)sc2c1`, which inhibition is on record?
**A.** The inhibition was inconclusive: 56%.

**Q.** Which inhibition does the source give for `CC(C)NC(=O)Nc1ccc2c(c1)C(=O)N([C@@H](C)CO)C[C@@H](C)[C@H](CN(C)Cc1ccc(C(=O)O)cc1)OCCCC[C@H](C)O2` here?
**A.** The inhibition was inconclusive: 76.7%.

**Q.** Which inhibition does the source give for `CCn1nc(C)c(Br)c1-c1nc(CS(=O)(=O)c2ccsc2)no1` here?
**A.** The inhibition was inactive: 7.72%.

**Q.** Which inhibition does the source give for `CN(C)C(=O)C(=O)c1c(-c2ccccc2)cc2ccccn12` here?
**A.** Its inhibition is inactive: 2.49%.

**Q.** With `CN1/C(=C\C(=O)c2oc3ccccc3c2N)C(C)(C)c2ccccc21` as the compound, how does the inhibition read?
**A.** The inhibition was active: 86.9%.

**Q.** With `O=C(Cc1ccc(Cl)cc1)Nc1ncccn1` as the compound, how does the inhibition read?
**A.** Its inhibition is inconclusive: 44.7%.

**Q.** With `CN(C)C(=O)C[C@@H]1C[C@H]2c3cc(NC(=O)Nc4ccc(C(F)(F)F)cc4)ccc3O[C@H]2[C@H](CO)O1` as the compound, how does the inhibition read?
**A.** The inhibition was inactive: -35.2%.

**Q.** With `CC(C)C#Cc1cnc2c(c1)C(=O)N([C@@H](C)CO)C[C@@H](C)[C@@H](CN(C)C(=O)CN1CCOCC1)O2` as the compound, how does the inhibition read?
**A.** Its inhibition is inconclusive: 58.3%.

**Q.** For `CCn1c(SCC(N)=O)nnc1C(C)C`, which inhibition is on record?
**A.** The inhibition was inconclusive: 43.9%.

**Q.** For `Cc1cc(C)nc(NC(=S)Nc2ccccc2)n1`, which inhibition is on record?
**A.** The inhibition was inconclusive: 60%.

**Q.** With `Cc1ccc(S(=O)(=O)N2CCCCC2C(=O)O)cc1` (stereo unspecified) as the compound, how does the inhibition read?
**A.** Its inhibition is inconclusive: 40.8%.

**Q.** With `C[C@H](CO)N1C[C@H](C)[C@H](CN(C)S(=O)(=O)c2ccc(F)cc2)Oc2ncc(-c3cccc(C(=O)N(C)C)c3)cc2C1=O` as the compound, how does the inhibition read?
**A.** Its inhibition is inconclusive: 48.3%.

**Q.** Which inhibition does the source give for `Cc1noc(C)c1NC(=O)Nc1ccc2c(c1)C(=O)N([C@@H](C)CO)C[C@@H](C)[C@@H](CN(C)Cc1ccncc1)O2` here?
**A.** Its inhibition is inactive: 2.99%.

**Q.** With `COc1cccc2c1C(=O)c1c(O)c3c(c(O)c1C2=O)CC(O)(C(C)=O)CC3OC1CC(N(C)C)C(O)C(C)O1` (stereo unspecified) as the compound, how does the inhibition read?
**A.** The inhibition was inconclusive: 39.7%.
